Results from the supplement of paper PMC11417369.
± gives the standard deviation of the averaged measurements. Some of the results follow.

Test system: PfAP2-LT AP2 domain (GST-tagged)
Test: gcPBM binding intensity (ln(normalized median fluorescence intensity)); higher = stronger DNA binding
Summary of the method: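 An Agilent 4 × 180k array of primer-extended double-stranded 36-bp intergenic genomic probes, with negative controls, was incubated for 1 h with GST-tagged P. falciparum DNA-binding domains expressed in E. coli. Alexa488 anti-GST antibody detected bound protein, scanned at 488 nm. Binding intensity is the highest Masliner-normalised natural-log median intensity across replicate spots of either probe orientation.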

Compared with TTTTTATTTTCATATGTGCACTTATATATATATATA, “TTTTTATATAAGAAAAAATTATAACAATTTGTTAAT [XGTACX_negctrl_site422]” is lower in “gcPBM binding intensity (ln)” value: 9.07 ± 0.36 for the first, 8.03 ± 0.46 for the second.

“TTCGCTGTTTTAATTAGTACTTATATATAATATTAT [XGTACX_site1149]” and “TATTGATATATATATATATATATATGTATATACTTA [GTGCAC_negctrl_site111]” are within error of each other in “gcPBM binding intensity (ln)” value: 8.93 ± 0.52 for the first, 9.15 ± 0.31 for the second.

Compared with “CTAAACCTTTTGAGCACACATATATATATATATATA [CACACA_site1782]”, “AAATTTTAATTAGACTGTACACATTTTAGAATAATT [XGTACX_site4819]” is lower in “gcPBM binding intensity (ln)” value: 9.745 ± 0.05 for the first, 8.59 ± 0.34 for the second.

“TTTTATGTTTTAAAATGTACGTGTCAATGAATAAGT [XGTACX_site6239]” and “TTTTATTTTTAAAATTGTACATTATTATTGTTATTT [XGTACX_site1439]” are within error of each other in “gcPBM binding intensity (ln)” value: 8.52 ± 0.42 for the first, 8.7 ± 0.54 for the second.

“TATTATAGTCCGACTTTTTAATTTCTTTATTGTTTT [CACACA_negctrl_site1381]” and “TGAATATTCATATGCACACAAATTAATATACATAAT [CACACA_site442]” are within error of each other in “gcPBM binding intensity (ln)” value: 8.78 ± 0.47 for the first, 9.05 ± 0.36 for the second.

“GGCTAAAAGTTGCACACACACAAAAAAAAAAAAAAA [CACACA_site7531]” and “TATTTGTTCTGATCCTTTTATTCAACTTTTTTTTTT [CACACA_negctrl_site978]” are within error of each other in “gcPBM binding intensity (ln)” value: 9.37 ± 0.51 for the first, 8.74 ± 0.55 for the second.

“ACCTTAATTATAATAACACACGAAAAGTGGACACAT [CACACA_site1750]” and AAAAAAAAGTTGTAAGTGCATGTATATAATAATATT are within error of each other in “gcPBM binding intensity (ln)” value: 9.12 ± 0.35 for the first, 8.79 ± 0.49 for the second.

“TGATCACATAATAAATGTACAAAAAAAAATTAATAA [XGTACX_site5867]” and “AGAACTTAATGCTGCACACAAAAAAAAGGAAAAATA [CACACA_site1353]” are within error of each other in “gcPBM binding intensity (ln)” value: 8.65 ± 0.49 for the first, 9.12 ± 0.47 for the second.

Going from “TTCTTTAAAATGATATACGTTATAAATATATATATA [XGTACX_negctrl_site256]” to “AACTTGTATATATACACACACACACTGTCTTTTTTT [CACACA_site1963]”, the “gcPBM binding intensity (ln)” value rises from 8.42 ± 0.38 to 9.91 ± 0.26.

“TTTAGATAATTCATTACACACATGTATATATATATA [CACACA_site3483]” and “TAAGGAAGAAGAAAAAGTACTAAAGGTATAAATGCG [XGTACX_site2628]” are within error of each other in “gcPBM binding intensity (ln)” value: 9.05 ± 0.18 for the first, 8.76 ± 0.62 for the second.

“GCAACCTTGTGCAAATGTACAAAAAAAAAAAAAAAA [XGTACX_site679]” and “AAAATTTCTTATTTTGTACACACAATAAATATTCAC [CACACA_site8464]” are within error of each other in “gcPBM binding intensity (ln)” value: 8.49 ± 0.49 for the first, 8.98 ± 0.47 for the second.

TTTTTGTTATTTTTAGTGCAGAAGAATAAATTTTAA and “TTTTTATTGTTGCTATATTTATAACAATTTATCATA [GTGCAC_negctrl_site75]” are within error of each other in “gcPBM binding intensity (ln)” value: 8.11 ± 0.39 for the first, 8.64 ± 0.49 for the second.

With “TTCAATAGTAAGTATACACACATATAAATAAATAAA [CACACA_site7295]” the “gcPBM binding intensity (ln)” value was 8.98 ± 0.48.
